Results taken from paper PMC4336329 (PLoS ONE, 2015).
Out of some 310,000 compounds screened, about 14,000 (4.5%) showed an effect of 50% or more. Effects have a minus sign here. Some of the results follow.
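Also: peak tail current of the secondary pulse compared with the same well before compound.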

These molecules were tested against human ether-à-go-go-related gene (hERG) potassium channel (human, UniProt Q12809) (assay: primary screen, population patch clamp on CHO cells stably expressing hERG).
Chain of human ether-à-go-go-related gene (hERG) potassium channel (Q12809 whole entry, looked up): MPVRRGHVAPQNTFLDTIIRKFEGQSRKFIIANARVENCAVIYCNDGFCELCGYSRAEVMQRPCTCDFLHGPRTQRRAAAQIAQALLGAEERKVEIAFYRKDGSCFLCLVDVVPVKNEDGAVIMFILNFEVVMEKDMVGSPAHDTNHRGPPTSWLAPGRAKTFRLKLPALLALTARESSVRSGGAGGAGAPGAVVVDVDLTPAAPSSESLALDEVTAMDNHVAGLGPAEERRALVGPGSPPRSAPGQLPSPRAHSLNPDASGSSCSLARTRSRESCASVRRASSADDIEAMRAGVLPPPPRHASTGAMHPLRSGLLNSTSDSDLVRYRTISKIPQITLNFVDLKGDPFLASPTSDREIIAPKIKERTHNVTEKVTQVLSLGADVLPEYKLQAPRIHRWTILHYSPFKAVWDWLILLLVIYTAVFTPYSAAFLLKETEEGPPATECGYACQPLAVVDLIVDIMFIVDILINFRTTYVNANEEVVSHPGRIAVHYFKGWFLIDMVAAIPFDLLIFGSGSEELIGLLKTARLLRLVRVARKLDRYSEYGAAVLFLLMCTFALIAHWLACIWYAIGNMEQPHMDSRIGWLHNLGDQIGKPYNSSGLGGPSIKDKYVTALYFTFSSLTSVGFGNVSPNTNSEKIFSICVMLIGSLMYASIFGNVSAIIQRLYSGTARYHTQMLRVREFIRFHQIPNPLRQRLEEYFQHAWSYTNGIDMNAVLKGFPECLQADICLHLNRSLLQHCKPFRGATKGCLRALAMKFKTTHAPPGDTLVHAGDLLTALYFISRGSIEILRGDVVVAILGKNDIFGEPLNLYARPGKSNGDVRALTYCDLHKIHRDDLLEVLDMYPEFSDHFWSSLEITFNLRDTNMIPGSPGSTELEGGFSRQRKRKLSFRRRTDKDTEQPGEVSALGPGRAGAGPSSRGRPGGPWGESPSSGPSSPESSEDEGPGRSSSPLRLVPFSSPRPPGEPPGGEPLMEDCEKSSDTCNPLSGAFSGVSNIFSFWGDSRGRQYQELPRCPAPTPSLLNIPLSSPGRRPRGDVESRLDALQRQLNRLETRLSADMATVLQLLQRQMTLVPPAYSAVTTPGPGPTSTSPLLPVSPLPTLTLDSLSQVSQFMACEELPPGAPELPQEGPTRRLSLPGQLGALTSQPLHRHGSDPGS
For `O=C(Nc1ccc(S(=O)(=O)NC2CCCC2)cc1)c1cnccn1`, the “hERG current change (%, negative = inhibition) at 10uM” value was -7.47%.
In the case of `O=S(=O)(NCCc1c[nH]c2ccccc12)c1ccccc1`, the “hERG current change (%, negative = inhibition) at 10uM” value is reported as 15.1%.
With `O=C(C1CCCN(S(=O)(=O)c2cccc3nsnc23)C1)N1CCC2(CC1)OCCO2` (centres unmarked) the “hERG current change (%, negative = inhibition) at 10uM” value was -4.58%.
In the case of `Cc1ccccc1-n1nc2c(c1NC(=O)c1ccco1)CS(=O)(=O)C2`, the “hERG current change (%, negative = inhibition) at 10uM” value is reported as 9.22%.
With `Cc1ccc(C(=O)O/N=C(\N)c2ccccn2)cc1` the “hERG current change (%, negative = inhibition) at 10uM” value was 8.63%.
In the case of `CCOc1ccc(CN(C)C(=O)c2cccnc2OCC)cc1OC`, the “hERG current change (%, negative = inhibition) at 10uM” value is reported as -15.6%.
For `COc1cc(C(=O)NCCc2ccc(S(N)(=O)=O)cc2)cc(OC)c1OC`, the “hERG current change (%, negative = inhibition) at 10uM” value was 11.9%.
In the case of `CCCCn1c(SC(C)C(=O)NCC2CCCO2)nc2cc(C(=O)OC)ccc2c1=O` (centres unmarked), the “hERG current change (%, negative = inhibition) at 10uM” value is reported as -44.9%.
`COc1ccc(/C=N/NC(=O)c2sccc2OCc2ccc(F)cc2)cc1OC` was tested, and the “hERG current change (%, negative = inhibition) at 10uM” value was 10.1%.
For `COc1ccc2nc(N/C(N)=N/C(=S)Nc3c(C)cccc3C)nc(C)c2c1`, the “hERG current change (%, negative = inhibition) at 10uM” value was 0.836%.
For `C=CCc1ccc(OCc2ccc(C(=O)Nc3ccc(NC(C)=O)cc3)o2)c(OC)c1`, the “hERG current change (%, negative = inhibition) at 10uM” value was 6.46%.
For `COc1ccccc1N1CCN(CCCCN2C(=O)C3CCCCN3C2=O)CC1` (centres unmarked), the “hERG current change (%, negative = inhibition) at 10uM” value was -12.8%.
With `C=C1C(C(=O)N2CCN(C)CC2)C1C(=O)N1CCN(C)CC1` (centres unmarked) the “hERG current change (%, negative = inhibition) at 10uM” value was -2.23%.
`c1ccc(OCc2nn3c(-c4ccncc4)nnc3s2)cc1` was tested, and the “hERG current change (%, negative = inhibition) at 10uM” value was -15.9%.
`COc1ccc(NC(=O)C(=S)NC2CCCCC2)cc1` was tested, and the “hERG current change (%, negative = inhibition) at 10uM” value was -20.6%.
For `Cc1cc(NC(=O)COC(=O)c2nccnc2N)n(-c2ccccc2)n1`, the “hERG current change (%, negative = inhibition) at 10uM” value was 12.2%.
With `CS(=O)(=O)c1ccc(Cl)c(NC(=O)CSc2nncn2-c2ccccc2)c1` the “hERG current change (%, negative = inhibition) at 10uM” value was -38.1%.
`Clc1ccc(CNc2ccc(CNc3ncn[nH]3)cc2)cc1` was tested, and the “hERG current change (%, negative = inhibition) at 10uM” value was -7.87%.
For `Cc1nc2nc(C)c(CCC(=O)N3CCC4(CC3)OCCO4)c(C)n2n1`, the “hERG current change (%, negative = inhibition) at 10uM” value was 0.0738%.
With `CCc1ccc(CNC(=O)C2Cc3cc(S(=O)(=O)N4CCCC4)ccc3N2C(C)=O)cc1` (centres unmarked) the “hERG current change (%, negative = inhibition) at 10uM” value was -25.9%.
In the case of `CCOc1cc(C)nc(NCc2ccccc2)n1`, the “hERG current change (%, negative = inhibition) at 10uM” value is reported as -3.43%.
`CC(C)n1nc(C(=O)OCC(=O)c2c[nH]c3ccccc23)c2ccccc2c1=O` was tested, and the “hERG current change (%, negative = inhibition) at 10uM” value was 0.434%.
In the case of `Cc1ccc(-n2c(-c3cccs3)nc3nc4ccccc4nc32)cc1`, the “hERG current change (%, negative = inhibition) at 10uM” value is reported as 2.4%.
`COC(=O)C1=C(C)NC(=O)C1(Nc1nccs1)C(F)(F)F` (centres unmarked) was tested, and the “hERG current change (%, negative = inhibition) at 10uM” value was 7.41%.
In the case of `O=C(c1ccccc1C(=O)N1CCN(c2ccc(F)cc2)CC1)N1CCN(c2ccc(F)cc2)CC1`, the “hERG current change (%, negative = inhibition) at 10uM” value is reported as -73.8%.
For `N#Cc1ccccc1OCC(=O)OCCCOC(=O)COc1ccccc1C#N`, the “hERG current change (%, negative = inhibition) at 10uM” value was 10.1%.
With `COc1ccc(OC)c(CNC(=O)Cn2nc(C)c3c(C)n(-c4ccc(C)cc4)nc3c2=O)c1` the “hERG current change (%, negative = inhibition) at 10uM” value was 3.27%.
With `COCCCNc1nc(N)c([N+](=O)[O-])c(NCc2ccccc2)n1` the “hERG current change (%, negative = inhibition) at 10uM” value was 13%.
With `COCCOCC(O)CN1CCN(c2ccc(C)cc2)CC1.O=C(O)C(=O)O` (centres unmarked) the “hERG current change (%, negative = inhibition) at 10uM” value was -11.2%.
For `CC(C)C(=O)Nc1ccc(-c2nnc(-c3ccccc3)o2)cc1`, the “hERG current change (%, negative = inhibition) at 10uM” value was 14%.
In the case of `O=c1[nH]c(O)c(C=Nc2ccc(Cl)c(C(F)(F)F)c2)c(=O)[nH]1`, the “hERG current change (%, negative = inhibition) at 10uM” value is reported as 7.57%.
For `CC(C)(C)c1cc(NC(=O)COC(=O)c2ccc(O)cc2O)n(-c2ccccc2)n1`, the “hERG current change (%, negative = inhibition) at 10uM” value was -79.3%.
For `COCCCNC(=O)c1cc2c(=O)n3cc(C)ccc3nc2nc1NCC1CCCO1` (centres unmarked), the “hERG current change (%, negative = inhibition) at 10uM” value was -71.9%.
With `Cc1cc(OCCN2CCCC2)ccc1C(C)C` the “hERG current change (%, negative = inhibition) at 10uM” value was -22.5%.
In the case of `O=C(c1ccc(Cl)cc1Cl)N1CCSCC1`, the “hERG current change (%, negative = inhibition) at 10uM” value is reported as 15.4%.
`COc1ccc(Cl)c2sc(N(CCN(C)C)C(=O)CCS(=O)(=O)c3ccc(C)cc3)nc12.Cl` was tested, and the “hERG current change (%, negative = inhibition) at 10uM” value was -7.51%.
For `CCOc1ccc(S(=O)(=O)NC2CCCC2)cc1C`, the “hERG current change (%, negative = inhibition) at 10uM” value was -1.86%.
With `Cc1cc(/C=C2\C(=O)NC(=O)N(c3ccc(F)cc3)C2=O)c(C)n1-c1ccc(C(=O)O)cc1` the “hERG current change (%, negative = inhibition) at 10uM” value was 20.6%.
`N#C/C(=C\c1coc2ccccc2c1=O)C(N)=S` was tested, and the “hERG current change (%, negative = inhibition) at 10uM” value was 14.5%.
In the case of `Cc1oc(-c2ccccc2F)nc1CSCC(=O)NC1CCCC1`, the “hERG current change (%, negative = inhibition) at 10uM” value is reported as 2.35%.
With `CCc1ccc(-c2nc(CN3CCC(C(=O)N4CCN(c5ccccc5)CC4)CC3)c(C)o2)cc1` the “hERG current change (%, negative = inhibition) at 10uM” value was -71.3%.
For `CCN(CC(=O)NCc1cccs1)C(=O)/C=C/c1cccc(Cl)c1Cl`, the “hERG current change (%, negative = inhibition) at 10uM” value was 4.92%.
`O=C1c2ccccc2C(=O)N1CCCc1nc(-c2ccccn2)no1` was tested, and the “hERG current change (%, negative = inhibition) at 10uM” value was -5.5%.
`CCOCCc1nnc(NC(=O)C2CC(=O)N(CCc3ccc(F)cc3)C2)s1` (centres unmarked) was tested, and the “hERG current change (%, negative = inhibition) at 10uM” value was 0.628%.
For `COc1ccc(-n2c(SCC#N)nc3ccccc3c2=O)cc1`, the “hERG current change (%, negative = inhibition) at 10uM” value was 17.5%.
For `CCCCNC(=S)N1CCN(c2ccccc2Cl)CC1`, the “hERG current change (%, negative = inhibition) at 10uM” value was -6.08%.
With `CCC(c1nnnn1CCOC)N1CCN(c2nc3ccccc3s2)CC1` (centres unmarked) the “hERG current change (%, negative = inhibition) at 10uM” value was -34.7%.
For `COc1ccc(CNc2ncccn2)cc1OC`, the “hERG current change (%, negative = inhibition) at 10uM” value was 14%.
In the case of `Cc1cc(C)c2c(N)c(C(=O)c3ccc(Br)cc3)oc2n1`, the “hERG current change (%, negative = inhibition) at 10uM” value is reported as 3.77%.
In the case of `CC(=O)N/C(=N/c1nc(C)cc(C)n1)Nc1cccc(C)c1C`, the “hERG current change (%, negative = inhibition) at 10uM” value is reported as 3.56%.
In the case of `CC(C)c1nnc(NC(=O)CCC(=O)NC2CCCc3ccccc32)s1` (centres unmarked), the “hERG current change (%, negative = inhibition) at 10uM” value is reported as 6.9%.
In the case of `O=C(CSc1nc2ccc(N3CCOCC3)cc2c(=O)n1CCc1ccccc1)NCC1CCCO1` (centres unmarked), the “hERG current change (%, negative = inhibition) at 10uM” value is reported as -47%.
For `N#Cc1nc(-c2ccccc2)oc1N1CCCCC1`, the “hERG current change (%, negative = inhibition) at 10uM” value was -2.67%.
In the case of `Cc1nnc(-c2ccco2)c2cn(-c3cccc(Br)c3)nc12`, the “hERG current change (%, negative = inhibition) at 10uM” value is reported as -1.23%.
`O=C(CS(=O)(=O)c1c[nH]c2ccccc12)Nc1ccc2c(c1)OCCO2` was tested, and the “hERG current change (%, negative = inhibition) at 10uM” value was 18.7%.
For `CCOc1ccc(NC(=O)Cn2cc(C(=O)C3CC3)c3ccccc32)cc1`, the “hERG current change (%, negative = inhibition) at 10uM” value was 1%.
